Reference: the antibiotic and cytotoxicity screens of Wong et al. (2023)
The list shows a part of the results.

Key:
HSkMC = human skeletal muscle cells; assay: cytotoxicity call (relative viability < 0.9); settings: 10 µM
HepG2 = assay: cytotoxicity call (relative viability < 0.9); settings: 10 µM
S. aureus RN4220 = assay: growth inhibition call (relative growth <= 0.2); settings: 50 µM

| Structure (SMILES) | cytotoxicity call (HSkMC) | cytotoxicity call (HepG2) | growth inhibition call (S. aureus RN4220) |
| --- | --- | --- | --- |
| N[C@H]1CC[C@H](CCn2cc(C3CCCCC3)nn2)O[C@@H]1CO | inactive | inactive | inactive |
| Cc1noc(C)c1NC(=O)Nc1ccc2c(c1)CC(=O)N([C@H](C)CO)C[C@@H](C)[C@@H](CN(C)C(=O)Nc1ccc(C(F)(F)F)cc1)O2 | inactive | inactive | inactive |
| C[C@H](CO)N1C[C@H](C)[C@@H](CN(C)C(=O)NC2CCCCC2)OCCCC[C@H](C)Oc2ccc(NC(=O)Nc3ccc4c(c3)OCO4)cc2C1=O | inactive | inactive | inactive |
| O=c1c(O)c(-c2ccc(O)c(O)c2)oc2c(OC3OC(CO)C(O)C(O)C3O)c(O)cc(O)c12 (centres undefined) | inactive | inactive | inactive |
| Cc1noc(C)c1NC(=O)N(C)C[C@H]1OCCCC[C@H](C)Oc2ccc(NS(=O)(=O)c3ccccc3)cc2C(=O)N([C@H](C)CO)C[C@@H]1C | inactive | inactive | inactive |
| CCC(=O)N(C)C[C@H]1Oc2ncc(C#C[C@@H](C)O)cc2C(=O)N([C@H](C)CO)C[C@H]1C | inactive | inactive | inactive |
| Cc1noc(C)c1NC(=O)N(C)C[C@@H]1Oc2c(NS(=O)(=O)c3cn(C)cn3)cccc2C(=O)N([C@@H](C)CO)C[C@H]1C | inactive | inactive | inactive |
| COc1ccc(NC(=O)N(C)C[C@@H]2Oc3ccc(NS(=O)(=O)c4c(C)noc4C)cc3C(=O)N([C@H](C)CO)C[C@H]2C)cc1 | inactive | inactive | inactive |
| COc1ccc(S(=O)(=O)Nc2ccc3c(c2)C(=O)N([C@H](C)CO)C[C@H](C)[C@H](CN(C)S(=O)(=O)c2ccc(C)cc2)O3)cc1 | inactive | inactive | inactive |
| C[C@@H]1CN([C@H](C)CO)C(=O)Cc2cc(NC(=O)Nc3ccc(F)cc3)ccc2O[C@H]1CN(C)Cc1ccc(C(=O)Nc2ccccc2N)cc1 | inactive | inactive | inactive |
| COc1ccc(S(=O)(=O)Nc2ccc3c(c2)CC(=O)N([C@@H](C)CO)C[C@@H](C)[C@@H](CN(C)C(=O)Nc2c(C)noc2C)O3)cc1 | inactive | inactive | inactive |
| COCC(=O)Nc1ccc2c(c1)OC[C@H](C)N(C(=O)Cc1ccccn1)C[C@@H](C)[C@H](OC)CN(C)C2=O | inactive | inactive | inactive |
| CCc1c(C)c2cc3c(-c4ccccc4)coc3cc2oc1=O | inactive | inactive | inactive |
| C[C@@H]1CCCCO[C@@H](CN(C)S(=O)(=O)c2cccs2)[C@H](C)CN([C@H](C)CO)C(=O)c2cc(NC(=O)Nc3ccc(C(F)(F)F)cc3)ccc2O1 | inactive | inactive | inactive |
| CC(C=CC1=C(C)CCCC1(C)C)=CC=CC(C)=CC(=O)O | inactive | inactive | inactive |
| COc1ccc(NC(=O)N(C)C[C@H]2Oc3ncc(C#C[C@H](C)O)cc3C(=O)N([C@H](C)CO)C[C@H]2C)cc1 | inactive | inactive | inactive |
| C[C@@H]1CCCCO[C@@H](CN(C)C(=O)CCC(F)(F)F)[C@H](C)CN([C@@H](C)CO)C(=O)c2cc(NS(=O)(=O)c3ccccc3)ccc2O1 | inactive | inactive | inactive |
| C[C@H](CO)N1C[C@H](C)[C@H](CN(C)S(=O)(=O)c2cn(C)cn2)Oc2c(NC(=O)c3nc4ccccc4s3)cccc2C1=O | inactive | inactive | inactive |
| Cn1cnc(CCNC(=O)C[C@H]2CC[C@@H]3[C@H](COC[C@@H](O)CN3C(=O)C3CC3)O2)c1 | inactive | inactive | inactive |
| CN1C(=O)c2cc(NC(=O)Nc3ccccc3F)ccc2OC[C@H]2O[C@@H](CC(=O)Nc3cccc(Cl)c3)CC[C@@H]21 | inactive | active | inactive |
| C[C@H]1CN([C@@H](C)CO)C(=O)Cc2cc(NC(=O)CCCCCC(=O)Nc3ccccc3N)ccc2O[C@@H]1CN(C)Cc1ccccc1 | inactive | inactive | inactive |
| Cc1ccc(-c2cnc3c(c2)C(=O)N([C@H](C)CO)C[C@H](C)[C@@H](CN(C)C(=O)Cc2cccnc2)O3)cc1 | inactive | inactive | inactive |
| C[C@@H]1CCCCO[C@H](CN(C)S(=O)(=O)c2cccs2)[C@@H](C)CN([C@H](C)CO)C(=O)c2cc(NC(=O)Nc3ccc4c(c3)OCO4)ccc2O1 | inactive | inactive | inactive |
| C[C@@H]1CN([C@H](C)CO)C(=O)c2cccc(NC(=O)C3CCCCC3)c2O[C@H]1CN(C)Cc1ccc(Oc2ccccc2)cc1 | inactive | inactive | inactive |
| C[C@H]1CN([C@@H](C)CO)C(=O)Cc2cc(NS(=O)(=O)c3ccc(F)cc3)ccc2O[C@H]1CN(C)CC1CC1 | inactive | inactive | inactive |
| C[C@H](CO)N1C[C@H](C)[C@H](CN(C)C(=O)Cc2ccccc2)OCCCC[C@H](C)Oc2ccc(NC(=O)Nc3ccc(F)cc3)cc2C1=O | inactive | inactive | inactive |
| COc1ccc(S(=O)(=O)N(C)C[C@H]2OCCCC[C@@H](C)Oc3ccc(NC(=O)Nc4c(C)noc4C)cc3C(=O)N([C@@H](C)CO)C[C@@H]2C)cc1 | inactive | inactive | inactive |

| Structure (SMILES) | cytotoxicity call (HSkMC) | cytotoxicity call (HepG2) | growth inhibition call (S. aureus RN4220) |
| --- | --- | --- | --- |
| C[C@@H]1CN([C@H](C)CO)C(=O)c2cc(C3=CCCC3)cnc2O[C@H]1CN(C)C(=O)c1ccc2c(c1)OCO2 | inactive | inactive | inactive |
| C[C@H]1CN([C@@H](C)CO)C(=O)c2cc(NC(=O)Nc3ccc(C(F)(F)F)cc3)ccc2O[C@@H]1CN(C)C(=O)Nc1ccc2c(c1)OCO2 | inactive | active | inactive |
| C[C@H]1CN([C@@H](C)CO)C(=O)c2cccc(NC(=O)c3nc4ccccc4s3)c2O[C@@H]1CN(C)Cc1ccc(Oc2ccccc2)cc1 | inactive | inactive | inactive |
| C[C@@H]1CN([C@H](C)CO)C(=O)Cc2cc(NC(=O)Cc3ccccc3)ccc2O[C@@H]1CN(C)S(=O)(=O)c1cn(C)cn1 | inactive | inactive | inactive |
| C[C@H](CO)N1C[C@H](C)[C@H](CN(C)S(=O)(=O)c2ccccc2)Oc2ccc(NS(=O)(=O)c3cccs3)cc2C1=O | inactive | inactive | inactive |
| C[C@H](CO)N1C[C@H](C)[C@H](CN(C)C(=O)NC2CCCCC2)Oc2ccc(NC(=O)CCCN(C)C)cc2C1=O | inactive | inactive | inactive |
| Cc1noc(C)c1NC(=O)Nc1ccc2c(c1)C(=O)N([C@H](C)CO)C[C@H](C)[C@@H](CN(C)C(=O)NC1CCCCC1)OCCCC[C@H](C)O2 | inactive | inactive | inactive |
| C[C@@H]1CN([C@H](C)CO)S(=O)(=O)c2ccc(C#CC3CC3)cc2O[C@H]1CN(C)Cc1ccccc1F | inactive | inactive | inactive |
| CC[C@@H](O)CNNC(=O)OC(C)(C)C | inactive | inactive | inactive |
| NCc1ccccc1-n1cncn1 | inactive | inactive | inactive |
| C[C@H](CO)N1C[C@H](C)[C@H](CN(C)C(=O)Nc2ccc3c(c2)OCO3)OCCCC[C@H](C)Oc2ccc(NC(=O)CCCCCC(=O)Nc3ccccc3N)cc2C1=O | inactive | inactive | inactive |
| C[C@H]1CN([C@@H](C)CO)C(=O)c2cc(Br)cnc2O[C@H]1CN(C)Cc1ccc2c(c1)OCO2 | inactive | inactive | inactive |
| C[C@H]1CN([C@@H](C)CO)C(=O)c2cccc(NC(=O)C3CC3)c2O[C@@H]1CN(C)Cc1ccc(-c2ccccc2)cc1 | inactive | inactive | inactive |
| Cc1noc(C)c1NC(=O)Nc1ccc2c(c1)C(=O)N([C@H](C)CO)C[C@@H](C)[C@@H](CN(C)CC1CCCCC1)OCCCC[C@H](C)O2 | inactive | inactive | inactive |
| Cc1ccc(S(=O)(=O)Nc2ccc3c(c2)C(=O)N([C@H](C)CO)C[C@H](C)[C@@H](CN(C)C(=O)CCC(F)(F)F)OCCCC[C@@H](C)O3)cc1 | inactive | inactive | inactive |
| C[C@@H]1CCCCO[C@H](CN(C)Cc2ccncc2)[C@H](C)CN([C@H](C)CO)C(=O)c2cc(NC(=O)Nc3ccc(F)cc3)ccc2O1 | inactive | inactive | inactive |
| C[C@H](CO)N1C[C@H](C)[C@@H](CN(C)C(=O)Nc2cccc(C(F)(F)F)c2)OCc2cnnn2CCCC1=O | inactive | inactive | inactive |
| Cc1ccc(Oc2ccccc2)c(NC(=O)c2ccccc2)c1 | inactive | active | inactive |
| O=c1c(O)c(-c2ccc(O)cc2)oc2cc(O)cc(O)c12 | inactive | inactive | inactive |
| Cn1cnc(CCNC(=O)C[C@@H]2CC[C@H]3[C@@H](COC[C@H](O)CN3C(=O)C3CC3)O2)c1 | inactive | inactive | inactive |
| C[C@@H]1CN([C@H](C)CO)C(=O)c2cc(NS(=O)(=O)c3ccc(F)cc3)ccc2O[C@H]1CN(C)Cc1ccncc1 | inactive | inactive | inactive |
| CC(C)(C)OC(=O)NCCOCCOCCOc1ccc(N(C(=O)CCl)[C@@H](C(=O)NCCc2ccccc2)c2cccs2)cc1Cl | active | active | inactive |
| COc1ccc(S(=O)(=O)Nc2ccc3c(c2)CC(=O)N([C@@H](C)CO)C[C@H](C)[C@H](CN(C)Cc2ccc(C(=O)O)cc2)O3)cc1 | inactive | inactive | inactive |
| C[C@@H]1CN([C@@H](C)CO)C(=O)c2cc(NS(=O)(=O)c3ccc(Cl)cc3)ccc2O[C@@H](C)CCCCO[C@@H]1CN(C)C(=O)Nc1ccc2c(c1)OCO2 | inactive | inactive | inactive |
| C[C@H]1CCCCO[C@H](CN(C)Cc2ccc(C(=O)O)cc2)[C@@H](C)CN([C@@H](C)CO)C(=O)c2cc(NS(=O)(=O)c3cccs3)ccc2O1 | inactive | inactive | inactive |
| COc1ccc(CN(C)C[C@@H]2OCCCC[C@@H](C)Oc3ccc(NC(=O)Nc4ccc(OC)cc4)cc3C(=O)N([C@@H](C)CO)C[C@H]2C)cc1 | inactive | inactive | inactive |
